We go through 56 compounds from PMC4336329 (PLoS ONE, 2015).

Out of some 310,000 compounds screened, about 14,000 (4.5%) showed an effect of 50% or more. The effect is printed as a negative number. This is one part of the list.
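Also: peak tail current of the secondary pulse compared with the same well before compound.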

Sequence of human ether-à-go-go-related gene (hERG) potassium channel (Q12809 whole entry, looked up): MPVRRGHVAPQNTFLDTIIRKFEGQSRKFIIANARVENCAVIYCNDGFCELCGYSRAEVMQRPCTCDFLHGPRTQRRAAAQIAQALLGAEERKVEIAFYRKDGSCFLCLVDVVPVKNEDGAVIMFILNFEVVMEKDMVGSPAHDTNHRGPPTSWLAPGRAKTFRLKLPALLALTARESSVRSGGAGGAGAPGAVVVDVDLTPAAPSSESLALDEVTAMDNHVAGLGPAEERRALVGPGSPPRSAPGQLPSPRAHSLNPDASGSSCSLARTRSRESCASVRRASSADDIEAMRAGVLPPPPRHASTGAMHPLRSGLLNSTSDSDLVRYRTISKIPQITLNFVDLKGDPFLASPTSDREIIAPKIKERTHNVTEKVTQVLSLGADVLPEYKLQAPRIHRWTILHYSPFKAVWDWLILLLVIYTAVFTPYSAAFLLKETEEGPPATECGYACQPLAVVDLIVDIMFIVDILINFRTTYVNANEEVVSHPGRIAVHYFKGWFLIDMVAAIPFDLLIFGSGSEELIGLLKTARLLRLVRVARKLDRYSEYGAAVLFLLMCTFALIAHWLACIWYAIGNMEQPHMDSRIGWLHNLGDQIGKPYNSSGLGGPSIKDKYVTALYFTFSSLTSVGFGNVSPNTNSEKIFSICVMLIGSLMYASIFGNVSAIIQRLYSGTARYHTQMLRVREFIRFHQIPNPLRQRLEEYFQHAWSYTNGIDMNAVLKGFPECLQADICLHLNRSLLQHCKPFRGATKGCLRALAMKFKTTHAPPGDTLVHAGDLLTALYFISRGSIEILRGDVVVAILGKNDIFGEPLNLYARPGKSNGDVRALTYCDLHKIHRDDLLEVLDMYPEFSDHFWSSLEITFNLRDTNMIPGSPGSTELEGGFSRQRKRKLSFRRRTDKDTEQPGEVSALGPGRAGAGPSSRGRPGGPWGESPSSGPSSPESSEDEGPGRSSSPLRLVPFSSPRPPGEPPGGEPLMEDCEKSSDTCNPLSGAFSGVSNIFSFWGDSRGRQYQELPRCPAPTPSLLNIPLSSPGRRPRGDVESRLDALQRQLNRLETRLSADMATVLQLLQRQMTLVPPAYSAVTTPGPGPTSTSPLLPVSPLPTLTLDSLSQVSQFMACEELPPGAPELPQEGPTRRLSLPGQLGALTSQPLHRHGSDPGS

This test addresses human ether-à-go-go-related gene (hERG) potassium channel (human, UniProt Q12809). Briefly: primary screen, population patch clamp on CHO cells stably expressing hERG.
For the compound `CCOc1cc(/C=C2\N=C(C)OC2=O)cc(Br)c1OCC(=O)OC`, the “hERG current change (%, negative = inhibition) at 10uM” value is 22.6%.

With `Cn1ccnc1Sc1cc(NCCCO)c([N+](=O)[O-])c2nonc12`, the “hERG current change (%, negative = inhibition) at 10uM” value was -3.23%.

For the compound `CCOC(=O)N1CCN(C(=S)Nc2cccc(C)c2)CC1`, the “hERG current change (%, negative = inhibition) at 10uM” value was found to be 0.816%.

As to `CCc1c(C)n2nc(C)cc2[nH]c1=O`, the “hERG current change (%, negative = inhibition) at 10uM” value is -24.5%.

For `CC(C)C(Nc1ccc(S(=O)(=O)N2CCOCC2)cc1[N+](=O)[O-])C(=O)O` (centres unmarked), the “hERG current change (%, negative = inhibition) at 10uM” value stood at 4.71%.

As for `Cc1cc(C)n2nc(C(=O)OCC(=O)N3C(C)CCCC3C)nc2n1` (centres unmarked), the “hERG current change (%, negative = inhibition) at 10uM” value was found to be 21.5%.

In the case of `O=C(COC(=O)C1CC2C=CC1C2)Nc1ccccc1` (centres unmarked), the “hERG current change (%, negative = inhibition) at 10uM” value is given as -2.43%.

On to `Cc1c(NC(=O)CN2C(=O)C(=O)N(Cc3ccccc3)C2=O)c(=O)n(-c2ccccc2)n1C`, for which the “hERG current change (%, negative = inhibition) at 10uM” value was 29.8%.

Take `Cc1ccccc1NC(=S)NCCc1c[nH]c2ccccc12`: the “hERG current change (%, negative = inhibition) at 10uM” value came to 12%.

As to `CN1OC(COC(=O)c2ccccc2)CC1c1ccccc1` (centres unmarked), the “hERG current change (%, negative = inhibition) at 10uM” value is -11.7%.

For `O=C(CSc1nnc(-c2ccncc2)n1C1CCCCC1)Nc1ccccc1`, the “hERG current change (%, negative = inhibition) at 10uM” value is -14.7%.

Regarding `Cc1nn(C2CCS(=O)(=O)C2)c(C)c1CN(C)C(=O)c1cccc(Cl)c1` (centres unmarked), the “hERG current change (%, negative = inhibition) at 10uM” value is -2.4%.

As for `Cc1ccc(NC(=O)CSCC(=O)OC(C)C(=O)Nc2ccc(S(N)(=O)=O)cc2)c(C)c1` (centres unmarked), the “hERG current change (%, negative = inhibition) at 10uM” value was 5.08%.

For the compound `N/C(=N\c1nc2ccccc2o1)NC(=O)c1ccccc1F`, the “hERG current change (%, negative = inhibition) at 10uM” value is on record as -7.79%.

As to `CC(C)NC(=O)C1CCN(c2ccc(S(=O)(=O)N3CCOCC3)cc2Cl)CC1`, the “hERG current change (%, negative = inhibition) at 10uM” value was -0.695%.

In the case of `CN1C(=O)C(CCC(N)=O)NC1=S` (centres unmarked), the “hERG current change (%, negative = inhibition) at 10uM” value was 8.73%.

Take `CC1CCN(S(=O)(=O)c2ccc(NC(=O)Cn3nnc(-c4ccccc4F)n3)cc2)CC1`: the “hERG current change (%, negative = inhibition) at 10uM” value was -8.32%.

Regarding `COc1cc(CC2C(=O)N(C)C(=O)N(C)C2=O)ccc1OCc1ccccc1`, the “hERG current change (%, negative = inhibition) at 10uM” value is reported as -5.65%.

Consider `c1ccc2c(c1)Nc1ccccc1S2`, for which the “hERG current change (%, negative = inhibition) at 10uM” value came out at 11.5%.

For `CC(C)OC(=O)/C(C#N)=C/c1cn(Cc2ccccc2)c2ccccc12`, the “hERG current change (%, negative = inhibition) at 10uM” value is reported as -6.73%.

For `COc1ccccc1OCc1ccc(C(=O)N2CCN(C(=O)c3ccco3)CC2)cc1`, the “hERG current change (%, negative = inhibition) at 10uM” value is on record as -37.8%.

Regarding `Cn1nc(-c2ccc(Cl)cc2)c2cc(C(=O)N3CCN(c4ccccc4)CC3)sc21`, the “hERG current change (%, negative = inhibition) at 10uM” value was 1.25%.

Consider `CN(C)S(=O)(=O)c1cccc(N=C2SCCN2Cc2ccccc2)c1`, for which the “hERG current change (%, negative = inhibition) at 10uM” value was -16.3%.

`Nc1nc2nc(-c3cccs3)cc(C(F)(F)F)n2n1`: the “hERG current change (%, negative = inhibition) at 10uM” value is recorded as 14%.

Take `O=C(O)c1ccc(S(=O)(=O)c2ccc3c(c2)C(=O)N(NC(=O)c2ccc(O)cc2)C3=O)cc1`: the “hERG current change (%, negative = inhibition) at 10uM” value is -3.45%.

On to `COc1ccc(CNC(=O)C2COc3ccccc3O2)cc1` (centres unmarked), for which the “hERG current change (%, negative = inhibition) at 10uM” value was determined as 2.57%.

As for `COCCCn1cc(C(=O)c2cc(OC)ccc2OCC(=O)N2CCCCC2C)cc(C#N)c1=O` (centres unmarked), the “hERG current change (%, negative = inhibition) at 10uM” value is -22.9%.

With `CC(=O)N1c2ccc(S(=O)(=O)N3CCCC3C(=O)NCc3ccc(Cl)cc3)cc2CC1C` (centres unmarked), the “hERG current change (%, negative = inhibition) at 10uM” value is given as -62.9%.

With `CC(C)OP(=O)(OC(C)C)C(O)c1ccc(Br)cc1` (centres unmarked), the “hERG current change (%, negative = inhibition) at 10uM” value is recorded as -2.31%.

On to `Cn1c(=O)oc2cc(S(=O)(=O)NCCC(=O)NC3CCCC3)ccc21`, for which the “hERG current change (%, negative = inhibition) at 10uM” value is recorded as 0.447%.

With `CC(=O)c1cccc(NC(=S)NC(=O)CC(C)C)c1`, the “hERG current change (%, negative = inhibition) at 10uM” value is recorded as 0.0132%.

For `COC(=O)c1[nH]c2c(c1C)C(=O)CC(c1cc(OC)ccc1OC)C2` (centres unmarked), the “hERG current change (%, negative = inhibition) at 10uM” value came to 5.02%.

Turning to `Cc1ccc(OCc2nc(C#N)c(NCCCn3ccnc3)o2)cc1`, the “hERG current change (%, negative = inhibition) at 10uM” value was -56%.

As for `CCc1ccc(-c2cn(-c3nc(C)cc(C)n3)c(=N)o2)cc1`, the “hERG current change (%, negative = inhibition) at 10uM” value is on record as -71.8%.

Consider `COc1ccc(OC)c(NC(=O)CCCSc2ccccc2)c1`, for which the “hERG current change (%, negative = inhibition) at 10uM” value is reported as -13.9%.

On to `COc1cccc(NC(=O)CN2CCN(S(=O)(=O)c3ccc(F)cc3)CC2)c1`, for which the “hERG current change (%, negative = inhibition) at 10uM” value was -23.1%.

Consider `CC(C)(C)c1ccc(Oc2ccc(N)cn2)cc1`, for which the “hERG current change (%, negative = inhibition) at 10uM” value was -5.07%.

Turning to `C[n+]1ccc(C(=O)NCCC[N+](C)(C)C)cc1/C=N/O.[Cl-]`, the “hERG current change (%, negative = inhibition) at 10uM” value was found to be 37.3%.

Regarding `O=C(Nc1ccc2c(c1)OCO2)[C@@H]1[C@@H]2C(=O)N(C3CCCCC3)C(=O)[C@@H]2C2c3ccccc3C=CN21` (some centres unmarked), the “hERG current change (%, negative = inhibition) at 10uM” value is -11.1%.

For `Cc1ccc(NC(=O)CSc2nc3nc(C)c(Br)cc3[nH]2)cc1F`, the “hERG current change (%, negative = inhibition) at 10uM” value came out at 13.7%.

In the case of `N#Cc1cnn(-c2ncnc3sc(-c4ccccc4)cc23)c1N`, the “hERG current change (%, negative = inhibition) at 10uM” value is given as -2.64%.

On to `COc1ccc(-n2c(Cc3cc(=O)[nH]c(=O)[nH]3)nnc2SCC(=O)N2CCCC2)cc1`, for which the “hERG current change (%, negative = inhibition) at 10uM” value was -14%.

In the case of `COc1cc(OC)cc(OC(=O)c2ccc3c(=O)n4c(nc3c2)CCC4)c1`, the “hERG current change (%, negative = inhibition) at 10uM” value is -14.1%.

As to `c1ccc(CCn2c3ccccc3c3nnc(SCc4ccc5nonc5c4)nc32)cc1`, the “hERG current change (%, negative = inhibition) at 10uM” value is -3.93%.

On to `COc1ccc(Cl)cc1N(CC(=O)Nc1ccccc1C(=O)N1CCOCC1)S(C)(=O)=O`, for which the “hERG current change (%, negative = inhibition) at 10uM” value is on record as -1.4%.

Take `O=C(Nc1nc(COc2ccccc2)cs1)C12CC3CC(CC(C3)C1)C2`: the “hERG current change (%, negative = inhibition) at 10uM” value is -2.42%.

Consider `O=C(Nc1ncnc2sc3c(c12)CCCCC3)c1ccco1`, for which the “hERG current change (%, negative = inhibition) at 10uM” value was -5.5%.

For the compound `COC(=O)C1=C(N)Oc2cc(C)oc(=O)c2C12C(=O)Nc1ccccc12` (centres unmarked), the “hERG current change (%, negative = inhibition) at 10uM” value stood at 24.5%.

Take `Nc1ncnc(Nc2cccc(C(F)(F)F)c2)n1`: the “hERG current change (%, negative = inhibition) at 10uM” value is reported as -5.45%.

In the case of `O=C(COc1ccccc1[N+](=O)[O-])N(Cc1cccc(Br)c1)C1CCS(=O)(=O)C1` (centres unmarked), the “hERG current change (%, negative = inhibition) at 10uM” value is given as -57.8%.

Take `Cn1c(=O)oc2cc(S(=O)(=O)N3CCN(Cc4ccc5c(c4)OCO5)CC3)ccc21`: the “hERG current change (%, negative = inhibition) at 10uM” value was -37.3%.

In the case of `O=C(CSc1nc2ccccc2o1)NCC1CCCO1` (centres unmarked), the “hERG current change (%, negative = inhibition) at 10uM” value is recorded as -35%.

For the compound `Cc1cc(C(F)(F)F)nc(-n2cc(-c3cccc(N)c3)nn2)n1`, the “hERG current change (%, negative = inhibition) at 10uM” value is given as 1.83%.

Consider `CCCC(=O)Nc1nn(CC)c2nc3ccc(C)cc3cc12`, for which the “hERG current change (%, negative = inhibition) at 10uM” value is given as -1.93%.

Turning to `COc1ccc(S(=O)(=O)N(C)CC(=O)N2CCCC2)cc1OC`, the “hERG current change (%, negative = inhibition) at 10uM” value is reported as 13%.

Take `COc1cccc(-c2cc(C(=O)N3CCc4ccccc4C3)[nH]n2)c1`: the “hERG current change (%, negative = inhibition) at 10uM” value stood at 15.1%.
